Results from publication PMC7819943, “Rice protein-binding microarrays: a tool to detect cis-acting elements near promoter regions in rice”.
This is one part of the list.

These sequences were tested against T1, OsWOX13 (Oryza sativa, UniProt Q5QMM3 1-267) (assay: protein-binding microarray (RPBM); PBS, 2% BSA, 51.3 ng/ul salmon testes DNA, 50 uM zinc acetate, 200 nM TF, 25 C, 1 h; high values mean tight binding). Settings: protein: recombinant; tags: N-terminal polyhistidine and DsRed monomer fusion (pET32a); label: CyDye5-dUTP incorporated in the synthesized complementary strand; 3' TTTTT single-stranded linker to array surface; dsDNA, one strand shown.
T1 sequence: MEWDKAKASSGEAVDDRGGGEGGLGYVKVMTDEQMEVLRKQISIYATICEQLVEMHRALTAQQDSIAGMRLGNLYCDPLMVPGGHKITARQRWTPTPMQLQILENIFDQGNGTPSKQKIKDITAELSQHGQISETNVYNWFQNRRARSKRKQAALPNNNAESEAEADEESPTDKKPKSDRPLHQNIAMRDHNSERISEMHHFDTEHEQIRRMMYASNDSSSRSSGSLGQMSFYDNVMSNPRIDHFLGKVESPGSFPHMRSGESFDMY
Outline: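 The binding signal is fluorescence intensity per feature, in arbitrary units, read on an Axon 4000B scanner. Polyhistidine- and DsRed-tagged transcription factors (N-terminal fusions) from E. coli BL21-CodonPlus were purified on Ni–NTA and applied at 200 nM for 1 h at 25 °C to a double-stranded, BSA-blocked custom Agilent array in buffer with 50 µM zinc acetate.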

Sequence | binding signal
ACATAAGTTAATTTTGACTACGATTATTGTTTAGGAAAGTCGGAGTCACCTAGTGCAG | 11300 fluorescence intensity (a.u.)
AAAATGGTCAAATATTAGATTGGACGGTATAAAATTACACCGGAGTCACCTAGTGCAG | 4720 fluorescence intensity (a.u.)
GCAGGTGCTTAATTAACATGTATTAAACTCGGAGACTTGTCGGAGTCACCTAGTGCAG | 3910 fluorescence intensity (a.u.)
TATTGATCAAATTTGGCAGCAAACTAAATATAGACATTTTCGGAGTCACCTAGTGCAG | 6750 fluorescence intensity (a.u.)
CACAAGAAATGGTGATTAGTGAATTCAAAATTAACCTGTCCGGAGTCACCTAGTGCAG | 13400 fluorescence intensity (a.u.)
ACTAATTATAAAAGAATTTTATATAAGACGGAACGGTCAACGGAGTCACCTAGTGCAG | 19800 fluorescence intensity (a.u.)
ATGACTTAAAAGAATACAGATTGCCAACATGTATACCCGTCGGAGTCACCTAGTGCAG | 3460 fluorescence intensity (a.u.)
GAAGAGGATTGGATTGATTCTATATCGTGCAGGGTTCATTCGGAGTCACCTAGTGCAG | 11500 fluorescence intensity (a.u.)
TTAAATATAGTTAATTAAACTAGCTAGCTCCTCCGATCCTCGGAGTCACCTAGTGCAG | 12800 fluorescence intensity (a.u.)
AATCATTTAAAACATTGATTTTATTTGACGATAAAACTAGCGGAGTCACCTAGTGCAG | 4690 fluorescence intensity (a.u.)
TAAGTTGGATTGAATTGGCTTGTCTACACGTGTCCTTTCCCGGAGTCACCTAGTGCAG | 4070 fluorescence intensity (a.u.)
ATAATTTGCAGTATTATATTGACAAATGGGCCCACTTGTGCGGAGTCACCTAGTGCAG | 19900 fluorescence intensity (a.u.)
CAAATTTATTAATCCTAATTAATCCATAATTAGTAAATATCGGAGTCACCTAGTGCAG | 28600 fluorescence intensity (a.u.)
AAGATTGCACCATTCATTCATCAATAGATAGCAGATTAGCCGGAGTCACCTAGTGCAG | 5130 fluorescence intensity (a.u.)
ATTTGCATTTACGGGTAATTATTATTTTAGCGATGAGTGACGGAGTCACCTAGTGCAG | 7200 fluorescence intensity (a.u.)
AGCGCTAATTAGGTCATTTGCGGACTAATCACCCCGGGTGCGGAGTCACCTAGTGCAG | 33100 fluorescence intensity (a.u.)
GTGATTAATACTAGGAGGGAGGGTATGATTATGAAACGGACGGAGTCACCTAGTGCAG | 6160 fluorescence intensity (a.u.)
AACCATTTATTGACTCGATGCATTGGGATAAGTCTAACCGCGGAGTCACCTAGTGCAG | 4310 fluorescence intensity (a.u.)
CCCTTGATGAACTATAGACCTGTAGAGAGATCAGAATTCACGGAGTCACCTAGTGCAG | 3270 fluorescence intensity (a.u.)
ACACACTAACTAATCAACAACGATAATAATATCCCATTCCCGGAGTCACCTAGTGCAG | 5150 fluorescence intensity (a.u.)
ATACTGTCATCAATTGATTACTCTGACCGTCGATCACACACGGAGTCACCTAGTGCAG | 34100 fluorescence intensity (a.u.)
CTAGATGAAATAATTTAGTTCAACGTATACAACAAACGATCGGAGTCACCTAGTGCAG | 8190 fluorescence intensity (a.u.)
AAGAAATAATTTTAAAATGGTGGTGCCATATGGGCCCCAACGGAGTCACCTAGTGCAG | 3940 fluorescence intensity (a.u.)
ACCCACAGCCCACCAATCACAGCACTCCTTTGTATTCTCTCGGAGTCACCTAGTGCAG | 3960 fluorescence intensity (a.u.)
TGAACTTAATTTCTACTAGAAATTTCTGGAAAAGACCTGCCGGAGTCACCTAGTGCAG | 5790 fluorescence intensity (a.u.)
CATACTCTTAGCTCATTTAAATTGACATTTGCACGATGATCGGAGTCACCTAGTGCAG | 6160 fluorescence intensity (a.u.)
TATTGATGGAGAAGAGGATAGGAAATGGAGGTTTTGGCTTCGGAGTCACCTAGTGCAG | 6540 fluorescence intensity (a.u.)

Sequence | binding signal
CATGACAAATTAACAAACAAACTTGCATGACCAGGTTGGACGGAGTCACCTAGTGCAG | 18500 fluorescence intensity (a.u.)
AATTTATTGAGCCTAATTAATTCATAATTAGTCTATGTGACGGAGTCACCTAGTGCAG | 25900 fluorescence intensity (a.u.)
AATTCTCCTCAATAATTAATGGTTATTAGTAAGACACAGACGGAGTCACCTAGTGCAG | 7010 fluorescence intensity (a.u.)
ATGTAATTAGTTACTAATAACTTCAATTGGCATCATGGATCGGAGTCACCTAGTGCAG | 35500 fluorescence intensity (a.u.)
CTAATTGGCAAATTAAACAAAGAAGAAGAGGAAAGGAAGGCGGAGTCACCTAGTGCAG | 44700 fluorescence intensity (a.u.)
ACTAATGTAATCGATCAACTTGTAAATCATATATCTAGATCGGAGTCACCTAGTGCAG | 6900 fluorescence intensity (a.u.)
CCCTGTCAGATTTCCATCAATCTAGCTCTCTTGTGCCTGACGGAGTCACCTAGTGCAG | 10200 fluorescence intensity (a.u.)
CACCAATCACTGGGCCCGGCCGTACGTATCTCTTGTTCTCCGGAGTCACCTAGTGCAG | 20900 fluorescence intensity (a.u.)
ATCAACCTATCCTGATTTAAATCGTAGATTTGATATGAGTCGGAGTCACCTAGTGCAG | 5570 fluorescence intensity (a.u.)
TATGTTATAATATCATGATTTAAACATAATTAGCGTACTACGGAGTCACCTAGTGCAG | 14000 fluorescence intensity (a.u.)
GGAATCTGTAATTTGTTTTCTTATTAGTCTACGTTTAATCCGGAGTCACCTAGTGCAG | 4790 fluorescence intensity (a.u.)
GTTTTGATTAGTTAAGGGACGCCGGATATCTGGTTTTGCACGGAGTCACCTAGTGCAG | 44000 fluorescence intensity (a.u.)
AGTAATTATTAATTCTTTTCCTATCATTTAATTCATTGTTCGGAGTCACCTAGTGCAG | 13600 fluorescence intensity (a.u.)
GGCCAGTAATTAACCATATTTATCATTTAAACTACTCAGTCGGAGTCACCTAGTGCAG | 9040 fluorescence intensity (a.u.)
CGTAATAAATTAAAAGGTTGCTTCTGTTACTCAGCCTAGACGGAGTCACCTAGTGCAG | 12600 fluorescence intensity (a.u.)
TCAACTAAACACACCCTAATTACAACTCTCCCAAAGCCCACGGAGTCACCTAGTGCAG | 5330 fluorescence intensity (a.u.)
CTATATAATTGAACTTACAACTTACATCCTTTAAATATGACGGAGTCACCTAGTGCAG | 12300 fluorescence intensity (a.u.)
AATTCAGAAATCAAAGATCATGATTGGTACATTTTATTTTCGGAGTCACCTAGTGCAG | 8900 fluorescence intensity (a.u.)
AATAAATTAGCAGGCGAGATCGGCCGCCATCGCAGATTCACGGAGTCACCTAGTGCAG | 5440 fluorescence intensity (a.u.)
GTTTGTGTTCTTGGATTGGGTTGGGTTGGGTTGGTGAGGTCGGAGTCACCTAGTGCAG | 4350 fluorescence intensity (a.u.)
TTTGATTGAGATTGATAATAACCTGCTGTAACTTAGCGAACGGAGTCACCTAGTGCAG | 61100 fluorescence intensity (a.u.)
GGAGCAAATTTACATGTAAAATTTGGTATTTTCAAATACTCGGAGTCACCTAGTGCAG | 7250 fluorescence intensity (a.u.)
TATAAATTTGATATGTTTTGTCAATTAATAGTTTAGTACTCGGAGTCACCTAGTGCAG | 29300 fluorescence intensity (a.u.)
CAAGCAGTTGATTAGAGTATACTTAGAGGATCAATTGCTACGGAGTCACCTAGTGCAG | 9920 fluorescence intensity (a.u.)
ATAATTATCGTAAATCATTCTGTCATTCAGCTATTCTTAGCGGAGTCACCTAGTGCAG | 17900 fluorescence intensity (a.u.)
CCACCTCTAATGAAGAGGTGATTGCAACCATTCATCTCTTCGGAGTCACCTAGTGCAG | 12000 fluorescence intensity (a.u.)
CATGGACTAATTAGACTTAAAATATTCATCTCGCGATTTTCGGAGTCACCTAGTGCAG | 24000 fluorescence intensity (a.u.)
